The source of these data is paper PMC4693258.

By UniProt entry, the sequences of proteins in these tests, tags left out. Where a name states a change or a piece, a line headed by the entry shows the natural chain unless it says otherwise. Residues count along the entry.
UniProt Q9HAU5: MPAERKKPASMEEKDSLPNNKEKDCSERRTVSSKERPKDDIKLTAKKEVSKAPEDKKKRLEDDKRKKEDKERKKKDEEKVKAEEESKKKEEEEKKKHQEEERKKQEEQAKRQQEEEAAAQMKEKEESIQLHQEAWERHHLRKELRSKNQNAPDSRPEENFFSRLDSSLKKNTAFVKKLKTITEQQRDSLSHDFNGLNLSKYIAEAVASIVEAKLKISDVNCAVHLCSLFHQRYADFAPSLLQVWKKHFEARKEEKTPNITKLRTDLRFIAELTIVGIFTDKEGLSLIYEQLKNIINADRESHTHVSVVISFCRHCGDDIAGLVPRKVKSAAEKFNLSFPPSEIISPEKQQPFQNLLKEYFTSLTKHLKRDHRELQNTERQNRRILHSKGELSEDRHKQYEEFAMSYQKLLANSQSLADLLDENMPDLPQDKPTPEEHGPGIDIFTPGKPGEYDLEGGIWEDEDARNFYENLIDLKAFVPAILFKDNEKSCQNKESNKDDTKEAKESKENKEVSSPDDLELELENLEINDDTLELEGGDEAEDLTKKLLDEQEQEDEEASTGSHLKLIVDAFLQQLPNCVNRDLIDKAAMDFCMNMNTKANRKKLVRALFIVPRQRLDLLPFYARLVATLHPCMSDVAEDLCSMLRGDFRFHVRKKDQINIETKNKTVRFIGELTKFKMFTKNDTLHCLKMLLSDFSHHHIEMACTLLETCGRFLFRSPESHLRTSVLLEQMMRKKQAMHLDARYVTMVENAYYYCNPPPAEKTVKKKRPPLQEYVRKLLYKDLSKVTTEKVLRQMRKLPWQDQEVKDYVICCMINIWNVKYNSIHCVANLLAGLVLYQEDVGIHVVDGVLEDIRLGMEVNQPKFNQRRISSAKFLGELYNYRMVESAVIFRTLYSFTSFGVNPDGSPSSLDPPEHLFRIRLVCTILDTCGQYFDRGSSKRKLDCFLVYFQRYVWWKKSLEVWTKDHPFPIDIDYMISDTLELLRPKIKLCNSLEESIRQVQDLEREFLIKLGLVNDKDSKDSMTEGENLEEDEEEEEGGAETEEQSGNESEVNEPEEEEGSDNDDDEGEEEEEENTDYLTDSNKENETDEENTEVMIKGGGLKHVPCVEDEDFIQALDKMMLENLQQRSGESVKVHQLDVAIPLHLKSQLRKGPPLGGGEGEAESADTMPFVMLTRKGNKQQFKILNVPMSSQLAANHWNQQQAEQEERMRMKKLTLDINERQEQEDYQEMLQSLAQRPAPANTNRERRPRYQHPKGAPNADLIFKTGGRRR
FLAG-UPF2^1–1096: residues 1-1096 of Q9HAU5
UniProt O00571: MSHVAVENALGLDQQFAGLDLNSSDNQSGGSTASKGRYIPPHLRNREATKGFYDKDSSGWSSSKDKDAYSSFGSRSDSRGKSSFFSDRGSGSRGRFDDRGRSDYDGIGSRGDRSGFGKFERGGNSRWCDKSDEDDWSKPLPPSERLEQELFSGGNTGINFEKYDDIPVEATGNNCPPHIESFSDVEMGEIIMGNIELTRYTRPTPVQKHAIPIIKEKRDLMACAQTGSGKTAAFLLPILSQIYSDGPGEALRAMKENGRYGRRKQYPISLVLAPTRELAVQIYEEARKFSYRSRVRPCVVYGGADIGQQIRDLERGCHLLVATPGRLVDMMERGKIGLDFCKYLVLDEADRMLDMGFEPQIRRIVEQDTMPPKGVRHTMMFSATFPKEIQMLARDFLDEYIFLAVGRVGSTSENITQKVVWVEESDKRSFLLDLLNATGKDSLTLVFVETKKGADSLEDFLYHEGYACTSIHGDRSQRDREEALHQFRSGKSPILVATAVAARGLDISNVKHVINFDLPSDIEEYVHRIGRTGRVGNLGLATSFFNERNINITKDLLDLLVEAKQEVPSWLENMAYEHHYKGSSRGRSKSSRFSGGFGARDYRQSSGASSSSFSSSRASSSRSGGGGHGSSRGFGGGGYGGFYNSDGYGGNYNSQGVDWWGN
UniProt P04406: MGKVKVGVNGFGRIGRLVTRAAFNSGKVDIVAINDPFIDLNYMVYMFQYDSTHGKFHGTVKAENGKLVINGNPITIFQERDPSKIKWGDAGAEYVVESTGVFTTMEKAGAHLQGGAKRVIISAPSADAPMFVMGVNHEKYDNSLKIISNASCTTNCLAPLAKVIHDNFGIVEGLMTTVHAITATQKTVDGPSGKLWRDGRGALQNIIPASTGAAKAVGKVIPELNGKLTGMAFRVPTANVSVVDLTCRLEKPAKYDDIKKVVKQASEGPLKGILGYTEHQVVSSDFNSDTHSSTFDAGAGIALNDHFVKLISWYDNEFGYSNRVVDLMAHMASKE
UniProt P37198: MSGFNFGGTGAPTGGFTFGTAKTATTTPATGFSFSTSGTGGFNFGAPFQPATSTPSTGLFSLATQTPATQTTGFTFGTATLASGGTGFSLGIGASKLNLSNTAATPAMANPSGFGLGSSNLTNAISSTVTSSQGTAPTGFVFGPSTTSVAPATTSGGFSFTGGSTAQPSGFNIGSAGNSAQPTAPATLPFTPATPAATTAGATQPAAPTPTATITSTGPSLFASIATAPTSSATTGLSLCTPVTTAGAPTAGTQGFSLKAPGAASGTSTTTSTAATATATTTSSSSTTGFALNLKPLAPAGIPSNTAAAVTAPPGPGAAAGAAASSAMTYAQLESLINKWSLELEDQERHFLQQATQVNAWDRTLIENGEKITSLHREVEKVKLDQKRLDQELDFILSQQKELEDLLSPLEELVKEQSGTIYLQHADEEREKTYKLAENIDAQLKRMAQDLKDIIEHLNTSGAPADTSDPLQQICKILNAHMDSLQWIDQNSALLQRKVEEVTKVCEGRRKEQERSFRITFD
UniProt O14980: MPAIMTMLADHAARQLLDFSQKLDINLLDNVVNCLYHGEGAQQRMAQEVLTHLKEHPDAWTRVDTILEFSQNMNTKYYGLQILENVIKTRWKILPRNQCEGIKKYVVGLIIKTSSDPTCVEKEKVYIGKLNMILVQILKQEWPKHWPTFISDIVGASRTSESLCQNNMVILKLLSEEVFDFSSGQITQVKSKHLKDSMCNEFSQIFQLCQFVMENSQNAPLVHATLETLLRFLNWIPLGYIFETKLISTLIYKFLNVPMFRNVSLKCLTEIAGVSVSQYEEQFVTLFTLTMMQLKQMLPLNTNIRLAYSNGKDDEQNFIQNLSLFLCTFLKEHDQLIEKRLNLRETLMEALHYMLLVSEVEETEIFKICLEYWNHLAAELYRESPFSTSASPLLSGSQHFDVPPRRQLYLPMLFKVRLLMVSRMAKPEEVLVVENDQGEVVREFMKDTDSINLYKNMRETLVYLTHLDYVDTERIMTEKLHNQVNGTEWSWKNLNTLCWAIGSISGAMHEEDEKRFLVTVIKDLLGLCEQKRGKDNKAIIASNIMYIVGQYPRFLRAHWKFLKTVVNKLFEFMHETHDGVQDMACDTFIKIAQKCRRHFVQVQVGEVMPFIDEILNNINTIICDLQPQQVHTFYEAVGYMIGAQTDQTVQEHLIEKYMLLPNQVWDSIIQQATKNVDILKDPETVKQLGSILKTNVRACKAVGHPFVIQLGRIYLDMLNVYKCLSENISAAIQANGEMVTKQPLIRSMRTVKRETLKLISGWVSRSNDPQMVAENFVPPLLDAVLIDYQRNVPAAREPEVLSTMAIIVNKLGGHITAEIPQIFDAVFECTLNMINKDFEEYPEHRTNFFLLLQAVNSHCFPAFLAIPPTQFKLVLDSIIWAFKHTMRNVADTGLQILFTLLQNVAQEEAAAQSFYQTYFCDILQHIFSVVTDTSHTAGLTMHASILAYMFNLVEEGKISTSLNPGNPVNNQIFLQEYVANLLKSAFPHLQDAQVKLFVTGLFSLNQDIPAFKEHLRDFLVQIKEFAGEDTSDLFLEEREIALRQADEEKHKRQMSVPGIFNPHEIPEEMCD
UniProt P04618: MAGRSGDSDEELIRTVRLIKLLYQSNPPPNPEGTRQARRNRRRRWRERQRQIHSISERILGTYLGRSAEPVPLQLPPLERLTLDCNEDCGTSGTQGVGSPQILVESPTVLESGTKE

Where two headings read alike, the source gives them in different places. No constants are given. Whether binding was seen depends on the method and setting. In cells and extracts the contact can be indirect. Some entries that bind do so weakly or less than the wild type. For some of these results: Where a sequence is shown, tags or fusion partners need not be part of it.

Experiment [1] has as its target T1, FLAG-UPF1^WT (pCI-FLAG-UPF1) (UniProt Q92900).
T1 sequence: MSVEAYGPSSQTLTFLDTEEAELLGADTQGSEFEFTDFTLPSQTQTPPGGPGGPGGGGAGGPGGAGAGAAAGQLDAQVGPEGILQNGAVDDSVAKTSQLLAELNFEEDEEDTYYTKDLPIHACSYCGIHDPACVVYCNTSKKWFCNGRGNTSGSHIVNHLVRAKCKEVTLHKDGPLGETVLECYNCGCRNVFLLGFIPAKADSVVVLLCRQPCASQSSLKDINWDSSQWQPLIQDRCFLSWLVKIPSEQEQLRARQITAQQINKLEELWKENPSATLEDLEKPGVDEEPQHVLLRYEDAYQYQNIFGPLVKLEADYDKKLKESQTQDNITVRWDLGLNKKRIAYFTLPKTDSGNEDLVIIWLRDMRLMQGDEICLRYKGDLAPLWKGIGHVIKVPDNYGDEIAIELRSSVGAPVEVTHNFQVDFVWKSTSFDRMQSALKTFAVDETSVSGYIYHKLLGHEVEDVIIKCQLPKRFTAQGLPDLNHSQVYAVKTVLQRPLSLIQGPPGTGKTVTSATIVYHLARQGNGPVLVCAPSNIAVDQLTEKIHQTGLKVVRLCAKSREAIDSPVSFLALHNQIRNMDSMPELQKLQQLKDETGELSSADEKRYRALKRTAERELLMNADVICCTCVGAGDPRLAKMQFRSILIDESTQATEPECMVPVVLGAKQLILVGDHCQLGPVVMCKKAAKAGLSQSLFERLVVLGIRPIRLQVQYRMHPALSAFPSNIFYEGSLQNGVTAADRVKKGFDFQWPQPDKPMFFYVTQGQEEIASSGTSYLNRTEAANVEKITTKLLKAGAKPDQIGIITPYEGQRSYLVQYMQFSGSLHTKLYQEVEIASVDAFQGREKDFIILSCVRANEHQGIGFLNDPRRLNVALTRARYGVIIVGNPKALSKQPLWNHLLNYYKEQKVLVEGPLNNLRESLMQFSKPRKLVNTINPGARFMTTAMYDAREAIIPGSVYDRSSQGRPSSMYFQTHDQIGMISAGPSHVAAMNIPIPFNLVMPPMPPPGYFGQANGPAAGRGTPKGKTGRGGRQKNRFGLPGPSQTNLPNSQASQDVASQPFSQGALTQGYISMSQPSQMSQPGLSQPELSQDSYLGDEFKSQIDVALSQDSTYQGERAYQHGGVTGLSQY
The experiment is described as follows: co-IP.

Experiment [2] has as its target T2, FLAG-UPF3aS (UniProt Q9H1J1).
T2 sequence: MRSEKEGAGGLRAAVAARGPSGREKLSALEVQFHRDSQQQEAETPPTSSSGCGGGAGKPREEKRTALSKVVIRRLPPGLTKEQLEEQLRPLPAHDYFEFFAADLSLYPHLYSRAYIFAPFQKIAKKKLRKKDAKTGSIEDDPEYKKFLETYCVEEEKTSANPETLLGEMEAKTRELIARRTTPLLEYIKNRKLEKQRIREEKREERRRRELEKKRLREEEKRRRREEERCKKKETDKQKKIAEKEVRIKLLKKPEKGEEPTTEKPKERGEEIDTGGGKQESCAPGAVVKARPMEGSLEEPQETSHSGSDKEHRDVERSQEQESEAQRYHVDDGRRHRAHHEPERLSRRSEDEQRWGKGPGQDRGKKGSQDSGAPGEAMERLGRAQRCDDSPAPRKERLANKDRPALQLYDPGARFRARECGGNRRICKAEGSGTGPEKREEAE
The experiment is described as follows: co-IP.

Experiment [3] addresses T3, FLAG-UPF3aL (UniProt Q9H1J1).
T3 sequence: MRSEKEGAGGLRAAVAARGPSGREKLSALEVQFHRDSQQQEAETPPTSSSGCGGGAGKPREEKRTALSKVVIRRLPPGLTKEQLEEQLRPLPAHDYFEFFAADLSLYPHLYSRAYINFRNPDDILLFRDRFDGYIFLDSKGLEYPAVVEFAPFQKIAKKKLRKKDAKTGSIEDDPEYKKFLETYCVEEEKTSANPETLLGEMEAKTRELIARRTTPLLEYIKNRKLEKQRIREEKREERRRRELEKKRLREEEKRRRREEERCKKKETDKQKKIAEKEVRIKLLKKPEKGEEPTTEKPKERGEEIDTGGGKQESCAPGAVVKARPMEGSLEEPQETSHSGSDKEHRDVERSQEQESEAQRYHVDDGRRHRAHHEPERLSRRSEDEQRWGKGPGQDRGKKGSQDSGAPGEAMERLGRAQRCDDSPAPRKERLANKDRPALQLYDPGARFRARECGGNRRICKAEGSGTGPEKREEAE
The experiment is described as follows: co-IP.

For experiment [4], the target named is T4, FLAG-UPF3b (UniProt Q9BZI7).
T4 sequence: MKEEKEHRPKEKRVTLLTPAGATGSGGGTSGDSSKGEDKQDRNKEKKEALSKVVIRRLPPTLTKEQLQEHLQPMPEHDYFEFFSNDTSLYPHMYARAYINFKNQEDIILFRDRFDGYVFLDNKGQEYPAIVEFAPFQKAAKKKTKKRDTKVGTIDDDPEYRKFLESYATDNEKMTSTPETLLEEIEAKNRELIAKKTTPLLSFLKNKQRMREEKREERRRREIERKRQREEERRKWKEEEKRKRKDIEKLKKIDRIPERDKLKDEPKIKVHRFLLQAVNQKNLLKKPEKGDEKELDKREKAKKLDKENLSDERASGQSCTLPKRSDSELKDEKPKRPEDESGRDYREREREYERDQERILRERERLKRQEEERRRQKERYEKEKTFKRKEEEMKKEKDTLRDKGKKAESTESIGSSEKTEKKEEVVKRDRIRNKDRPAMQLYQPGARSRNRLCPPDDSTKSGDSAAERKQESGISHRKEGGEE
The experiment is described as follows: co-IP.

For experiment [5], the target named is T1, FLAG-UPF1^WT (pCI-FLAG-UPF1). The experiment is described as follows: co-IP + co-sedimentation.
Experiment [6] has as its target FLAG-UPF2^WT (UniProt Q9HAU5). The experiment is described as follows: co-IP.
In experiment [7] the target is T2, FLAG-UPF3aS. The experiment is described as follows: co-IP. This is another data set of the same source.
The target in experiment [8] is FLAG-UPF2^1–1096 (UniProt Q9HAU5). The experiment is described as follows: co-IP.
Experiment [9] deals with T3, FLAG-UPF3aL. The experiment is described as follows: co-IP. The source holds these as a separate data set.
Experiment [10] deals with T4, FLAG-UPF3b. The experiment is described as follows: co-IP. This is another data set of the same source.
Experiment [11] has as its target T1, FLAG-UPF1^WT (pCI-FLAG-UPF1). The experiment is described as follows: co-IP. This is another data set of the same source.

On to DDX3 (from UniProt O00571 1-662), for which the binding entry in [1] is given as “binds”.

“UPF2 (endogenous) (from UniProt Q9HAU5 1-1272)”: the binding result in experiment [1] is reported as “binds”; in experiment [2] it was “no binding”; in experiment [3], “binds”; in [4], “binds”.

Consider GAPDH (from UniProt P04406 1-335), for which the binding entry in experiment [1] is recorded as “no binding”.

As for “nucleoporin p62 (Nup62) (from UniProt P37198 1-522)”, the binding result in experiment [1] is on record as “binds”.

As to “CRM1 (Chromosomal Maintenance 1) (from UniProt O14980 1-1071)”, the binding result in experiment [5] and in experiment [1] was “binds” each time.

Regarding “Rev-R-YC (Rev expressor) (from UniProt P04618 1-116)”, the binding entry in experiment [1] was “binds”.

B1: UPF1 (endogenous) (protein, UniProt Q92900 1-1129)
chain: MSVEAYGPSSQTLTFLDTEEAELLGADTQGSEFEFTDFTLPSQTQTPPGGPGGPGGGGAGGPGGAGAGAAAGQLDAQVGPEGILQNGAVDDSVAKTSQLLAELNFEEDEEDTYYTKDLPIHACSYCGIHDPACVVYCNTSKKWFCNGRGNTSGSHIVNHLVRAKCKEVTLHKDGPLGETVLECYNCGCRNVFLLGFIPAKADSVVVLLCRQPCASQSSLKDINWDSSQWQPLIQDRCFLSWLVKIPSEQEQLRARQITAQQINKLEELWKENPSATLEDLEKPGVDEEPQHVLLRYEDAYQYQNIFGPLVKLEADYDKKLKESQTQDNITVRWDLGLNKKRIAYFTLPKTDSGNEDLVIIWLRDMRLMQGDEICLRYKGDLAPLWKGIGHVIKVPDNYGDEIAIELRSSVGAPVEVTHNFQVDFVWKSTSFDRMQSALKTFAVDETSVSGYIYHKLLGHEVEDVIIKCQLPKRFTAQGLPDLNHSQVYAVKTVLQRPLSLIQGPPGTGKTVTSATIVYHLARQGNGPVLVCAPSNIAVDQLTEKIHQTGLKVVRLCAKSREAIDSPVSFLALHNQIRNMDSMPELQKLQQLKDETGELSSADEKRYRALKRTAERELLMNADVICCTCVGAGDPRLAKMQFRSILIDESTQATEPECMVPVVLGAKQLILVGDHCQLGPVVMCKKAAKAGLSQSLFERLVVLGIRPIRLQVQYRMHPALSAFPSNIFYEGSLQNGVTAADRVKKGFDFQWPQPDKPMFFYVTQGQEEIASSGTSYLNRTEAANVEKITTKLLKAGAKPDQIGIITPYEGQRSYLVQYMQFSGSLHTKLYQEVEIASVDAFQGREKDFIILSCVRANEHQGIGFLNDPRRLNVALTRARYGVIIVGNPKALSKQPLWNHLLNYYKEQKVLVEGPLNNLRESLMQFSKPRKLVNTINPGARFMTTAMYDAREAIIPGSVYDRSSQGRPSSMYFQTHDQIGMISAGPSHVAAMNIPIPFNLVMPPMPPPGYFGQANGPAAGRGTPKGKTGRGGRQKNRFGLPGPSQTNLPNSQASQDVASQPFSQGALTQGYISMSQPSQMSQPGLSQPELSQDSYLGDEFKSQIDVALSQDSTYQGERAYQHGGVTGLSQY
For B1, the binding entry in experiment [6] is reported as “binds”; in [7], “binds”; in experiment [8], “no binding”; in [9], “binds”; in experiment [10], “binds”.

B2: UPF3b (endogenous) (protein, UniProt Q9BZI7 1-483)
chain: MKEEKEHRPKEKRVTLLTPAGATGSGGGTSGDSSKGEDKQDRNKEKKEALSKVVIRRLPPTLTKEQLQEHLQPMPEHDYFEFFSNDTSLYPHMYARAYINFKNQEDIILFRDRFDGYVFLDNKGQEYPAIVEFAPFQKAAKKKTKKRDTKVGTIDDDPEYRKFLESYATDNEKMTSTPETLLEEIEAKNRELIAKKTTPLLSFLKNKQRMREEKREERRRREIERKRQREEERRKWKEEEKRKRKDIEKLKKIDRIPERDKLKDEPKIKVHRFLLQAVNQKNLLKKPEKGDEKELDKREKAKKLDKENLSDERASGQSCTLPKRSDSELKDEKPKRPEDESGRDYREREREYERDQERILRERERLKRQEEERRRQKERYEKEKTFKRKEEEMKKEKDTLRDKGKKAESTESIGSSEKTEKKEEVVKRDRIRNKDRPAMQLYQPGARSRNRLCPPDDSTKSGDSAAERKQESGISHRKEGGEE
Regarding B2, the binding result in experiment [5], in experiment [11], in experiment [6] and in experiment [8] was “binds” throughout.
